The other results are listed elsewhere or left out.
Legend:
Experiment in all cases: glycan array binding signal (z-score within array); higher = stronger binding
Details in all cases: glycan notation: IUPAC condensed, linker removed
[1] = biological target: Neu5Ac(a2-6)GlcNAc(b1-4)GlcNAc(b1-4)GlcNAc
In short: (§1)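 The Consortium for Functional Glycomics database supplied 3228 glycan arrays, of which those lacking an available protein sequence were dropped. The binding signal, a within-array Z-score, was averaged across arrays of the same protein sequence and across linkers. Negative scores can be read as non-binding.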

[2] = biological target: Neu5Ac(a2-8)Neu5Ac
In short: as §1

[3] = biological target: Neu5Ac(a2-8)Neu5Ac(a2-3)Gal(b1-3)GalNAc(b1-4)[Neu5Ac(a2-3)]Gal(b1-4)Glc
In short: as §1

[4] = biological target: Neu5Ac(a2-8)Neu5Ac(a2-3)Gal(b1-3)GalNAc(b1-4)[Neu5Ac(a2-8)Neu5Ac(a2-3)]Gal(b1-4)Glc
In short: as §1

[5] = biological target: Neu5Ac(a2-8)Neu5Ac(a2-3)Gal(b1-4)Glc
In short: as §1

[6] = biological target: Neu5Ac(a2-8)Neu5Ac(a2-3)Gal(b1-4)GlcNAc
In short: as §1

[7] = biological target: Neu5Ac(a2-8)Neu5Ac(a2-3)[Gal(b1-3)GalNAc(b1-4)]Gal(b1-4)Glc
In short: as §1

[8] = biological target: Neu5Ac(a2-8)Neu5Ac(a2-3)[GalNAc(b1-4)]Gal(b1-4)Glc
In short: as §1

[9] = biological target: Neu5Ac(a2-8)Neu5Ac(a2-8)Neu5Ac
In short: as §1

[10] = biological target: Neu5Ac(a2-8)Neu5Ac(a2-8)Neu5Ac(a2-3)Gal(b1-4)Glc
In short: as §1

[11] = biological target: Neu5Ac(a2-8)Neu5Ac(a2-8)Neu5Ac(a2-3)[Gal(b1-3)GalNAc(b1-4)]Gal(b1-4)Glc
In short: as §1

[12] = biological target: Neu5Ac(a2-8)Neu5Ac(a2-8)Neu5Ac(a2-3)[GalNAc(b1-4)]Gal(b1-4)Glc
In short: as §1

[13] = biological target: Neu5Ac(a2-8)Neu5Ac(a2-8)Neu5Ac(a2-8)Neu5Ac(a2-3)[GalNAc(b1-4)]Gal(b1-4)Glc
In short: as §1

[14] = biological target: Neu5Ac(a2-8)Neu5Gc(a2-3)Gal(b1-4)GlcNAc
In short: as §1

[15] = biological target: Neu5Ac(b2-6)Gal(b1-4)GlcNAc
In short: as §1

[16] = biological target: Neu5Ac(b2-6)GalNAc
In short: as §1

[17] = biological target: Neu5Ac9Ac(a2-3)Gal(b1-3)GlcNAc
In short: as §1

[18] = biological target: Neu5Ac9Ac(a2-3)Gal(b1-4)GlcNAc
In short: as §1

[19] = biological target: Neu5Ac9Ac(a2-6)Gal(b1-4)GlcNAc
In short: as §1

[20] = biological target: Neu5Gc(a2-3)Gal(b1-3)GlcNAc
In short: as §1

[21] = biological target: Neu5Gc(a2-3)Gal(b1-3)[Fuc(a1-4)]GlcNAc
In short: as §1

[22] = biological target: Neu5Gc(a2-3)Gal(b1-4)Glc
In short: as §1

[23] = biological target: Neu5Gc(a2-3)Gal(b1-4)GlcNAc
In short: as §1

[24] = biological target: Neu5Gc(a2-3)Gal(b1-4)GlcNAc(b1-3)Gal(b1-4)GlcNAc(b1-2)Man(a1-3)[Neu5Gc(a2-3)Gal(b1-4)GlcNAc(b1-3)Gal(b1-4)GlcNAc(b1-2)Man(a1-6)]Man(b1-4)GlcNAc(b1-4)GlcNAc
In short: as §1

[25] = biological target: Neu5Gc(a2-3)Gal(b1-4)[Fuc(a1-3)]GlcNAc
In short: as §1

[26] = biological target: Neu5Gc(a2-6)Gal(b1-4)GlcNAc
In short: as §1

[27] = biological target: Neu5Gc(a2-6)GalNAc
In short: as §1

[28] = biological target: Neu5Gc(a2-8)Neu5Ac(a2-3)Gal(b1-4)GlcNAc
In short: as §1

[29] = biological target: Neu5Gc(a2-8)Neu5Gc(a2-3)Gal(b1-4)GlcNAc
In short: as §1

[30] = biological target: Neu5Gc(a2-8)Neu5Gc(a2-3)Gal(b1-4)GlcNAc(b1-3)Gal(b1-4)GlcNAc
In short: as §1

[31] = biological target: Neu5Gc(a2-8)Neu5Gc(a2-6)Gal(b1-4)GlcNAc
In short: as §1

[32] = biological target: Neu5Gc(b2-6)Gal(b1-4)GlcNAc
In short: as §1

B1: LBL-152 (Laetiporus bicolor), B0D650 (protein)
chain: MSNEYNPPLGIAFRLCGLASDRVLFSRVSPSPEVFHHPKSEVYPDQWFVAIPGSGQNAGCYAIKSKNTGKVLFSRMSPDPRVGHIDGDGKYPDNWFKFEAGSGKYAGYFRLRAVASDTVLVSRTSTGTDTQVINYPATSAKYDDQYFTILFDHHHHHH
Question: Which “glycan array binding signal (z-score)” value [1] does the source give for B1 here?
Answer: -0.161

Question: And the “glycan array binding signal (z-score)” value [2]?
Answer: -0.145

Question: What about the “glycan array binding signal (z-score)” value [3] of the same binder?
Answer: -0.154

Question: What about the “glycan array binding signal (z-score)” value [4] of the same binder?
Answer: -0.143

Question: And the “glycan array binding signal (z-score)” value [5]?
Answer: -0.157

Question: And the “glycan array binding signal (z-score)” value [6]?
Answer: -0.155

Question: What about the “glycan array binding signal (z-score)” value [7] of the same binder?
Answer: -0.157

Question: What about the “glycan array binding signal (z-score)” value [8] of the same binder?
Answer: -0.155

Question: And the “glycan array binding signal (z-score)” value [9]?
Answer: -0.152

Question: What about the “glycan array binding signal (z-score)” value [10] of the same binder?
Answer: -0.144

Question: What about the “glycan array binding signal (z-score)” value [11] of the same binder?
Answer: -0.155

Question: And the “glycan array binding signal (z-score)” value [12]?
Answer: -0.159

Question: What about the “glycan array binding signal (z-score)” value [13] of the same binder?
Answer: -0.151

Question: And the “glycan array binding signal (z-score)” value [14]?
Answer: -0.154

Question: What about the “glycan array binding signal (z-score)” value [15] of the same binder?
Answer: -0.161

Question: What about the “glycan array binding signal (z-score)” value [16] of the same binder?
Answer: -0.165

Question: What about the “glycan array binding signal (z-score)” value [17] of the same binder?
Answer: -0.155

Question: And the “glycan array binding signal (z-score)” value [18]?
Answer: -0.153

Question: What about the “glycan array binding signal (z-score)” value [19] of the same binder?
Answer: -0.159

Question: And the “glycan array binding signal (z-score)” value [20]?
Answer: -0.159

Question: And the “glycan array binding signal (z-score)” value [21]?
Answer: -0.146

Question: And the “glycan array binding signal (z-score)” value [22]?
Answer: -0.153

Question: What about the “glycan array binding signal (z-score)” value [23] of the same binder?
Answer: -0.162

Question: What about the “glycan array binding signal (z-score)” value [24] of the same binder?
Answer: -0.127

Question: And the “glycan array binding signal (z-score)” value [25]?
Answer: -0.151

Question: And the “glycan array binding signal (z-score)” value [26]?
Answer: -0.16

Question: And the “glycan array binding signal (z-score)” value [27]?
Answer: -0.153

Question: What about the “glycan array binding signal (z-score)” value [28] of the same binder?
Answer: -0.155

Question: And the “glycan array binding signal (z-score)” value [29]?
Answer: -0.161

Question: What about the “glycan array binding signal (z-score)” value [30] of the same binder?
Answer: -0.157

Question: What about the “glycan array binding signal (z-score)” value [31] of the same binder?
Answer: -0.163

Question: And the “glycan array binding signal (z-score)” value [32]?
Answer: -0.154

— the supplement of paper PMC8728848
